Measured values reported in PubChem BioAssay (Tox21).
Inconclusive results, whose numbers are uncertain, are shown with a selection of clear calls. For part of these data: Potencies of inconclusive entries are doubtful fits and often do not repeat. The source made the active and inactive calls. Unless noted, calls follow the shape of the dose curve; as a rule, active = well fitted curve in the direction sought with a large enough effect in the repeat runs; inconclusive = weak or mixed curves; inactive = no such curve, though single readings can be large; an effect the other way counts as inactive or inconclusive.

Key:
[1] = qHTS assay to identify small molecule agonists of the farnesoid-X-receptor (FXR) signaling pathway - cell viability counter screen (AID 743218); conditions: FXR-bla HEK293T viability, CellTiter-Glo luminescence, 16 h; viability change, negative = cytotoxic: at 62.6 µM (top of the series); also: nearly all actives have a fitted effect of over 45% in size; also: potency is read from the fitted curve at half-maximal effect
Outline: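 Cytotoxicity counter-screen run in parallel, same wells: FXR-UAS-bla HEK 293T cells dosed 16 h at 37 C, viability read by CellTiter-Glo luminescence after 30 min at room temperature.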

[2] = qHTS RealTime-Glo MT Cell Viability Assay in HEK293 cells - 32 hour (AID 1224868); also: nearly all actives have a fitted effect of over 50% in size; also: potency is read from the fitted curve at half-maximal effect
Outline: (§1)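 Luminescence generated by NanoLuc from substrate produced by living HEK293 cells served as the viability signal. Each value reflects the reading at its stated time point during continuous 40 h compound exposure at 37 C.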

[3] = qHTS RealTime-Glo MT Cell Viability Assay in HEK293 cells - 16 hour (AID 1224872); also: nearly all actives have a fitted effect of over 50% in size; also: potency is read from the fitted curve at half-maximal effect
Outline: as §1

[4] = qHTS RealTime-Glo MT Cell Viability Assay in HEK293 cells - 24 hour (AID 1224886); also: potency is read from the fitted curve at half-maximal effect; nearly all actives have a fitted effect of over 50% in size
Outline: as §1

[5] = qHTS RealTime-Glo MT Cell Viability Assay in HEK293 cells - 8 hour (AID 1224887); also: nearly all actives have a fitted effect of over 50% in size; also: potency is read from the fitted curve at half-maximal effect; as to activity change, negative = cytotoxicity: top concentration of the series differs between compounds; % is scaled to controls: 0 for no effect and ±100 for the full control effect
Outline: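 Nonlytic bioluminescent viability monitoring. HEK293 at 600 cells/well with reagent; 5 h settle; compound transfer by pintool; plates held at 37 C and read at set time points.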

[6] = qHTS assay to identify small molecule agonists of the sonic hedgehog signaling (Shh) pathway - cell viability counter screen (AID 1259366); also: nearly all actives have a fitted effect of over 50% in size; also: potency is read from the fitted curve at half-maximal effect
Outline: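 Cytotoxicity counter screen run in the same wells as the Shh reporter assay. NIH/3T3 cells carrying a Gli1 response element–driven luciferase were treated with DMSO-dissolved compounds for 24hr, and live-cell protease activity was measured with CellTiter-Fluor.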

[7] = target: Thyrotropin receptor (Homo sapiens) (UniProt P16473); assay: qHTS assay to identify small molecule agonists of the thyroid stimulating hormone receptor (TSHR) signaling pathway (AID 1224843; calls by dose curve; also: % is scaled to controls: 0 for no effect and ±100 for the full control effect; nearly all actives have a fitted effect of over 45% in size); conditions: TSHR-HEK293 cells, cAMP HTRF, agonist mode, 30 min; activation: at 92.4 µM (top of the series) unless noted
Outline: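 HEK293 cells stably bearing the thyrotropin receptor were plated at 800 cells/well and challenged with compound (30 min, RT). Accumulated cAMP was quantified via cAMP-d2 competing for cryptate-tagged antibody.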

[8] = qHTS assay to identify small molecule antagonists of the progesterone receptor (PR) signaling pathway - cell viability counter screen (AID 1346798); also: nearly all actives have a fitted effect of over 50% in size; also: potency is read from the fitted curve at half-maximal effect;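 as to activity change, negative = cytotoxicity: HEK293T PR-UAS-bla cells stimulated with the agonist R5020; % is scaled to controls: 0 for no effect and ±100 for the full control effect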
Outline: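 HEK293T PR-UAS-bla, 2% charcoal-stripped FBS; 4 hr pre-plate; cpd + R5020, 16 h 37C; LiveBLAzer read first; then CellTiter-Glo 30 min RT, luminescence.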

[9] = target: Estrogen receptor (Homo sapiens) (UniProt P03372); assay: qHTS assay to identify small molecule agonists of the estrogen receptor alpha (ER-alpha) signaling pathway using the BG1 cell line (AID 743079); conditions: BG1Luc4E2 cells, ERE-luciferase agonist, 22 h; activation: at 70.3 µM (top of the series) unless noted; also: % is scaled to controls: 0 for no effect and ±100 for the full control effect; nearly all actives have a fitted effect of over 20% in size
[10] = qHTS assay to identify small molecule antagonists of the peroxisome proliferator-activated receptor delta (PPARd) signaling pathway - cell viability counter screen (AID 743213); conditions: PPARd-bla HEK293H viability, CellTiter-Glo luminescence, 17 h; viability change, negative = cytotoxic: at 62 µM (top of the series) unless noted
Outline: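 In this counter screen, HEK293H cells carrying a UAS-beta-lactamase reporter are co-treated with test compounds and 300 nM L165041 (final) for 17 h at 37 C; cell viability is quantified by CellTiter-Glo luminescence.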

[11] = target: Nuclear receptor subfamily 1 group I member 2 (Homo sapiens) (UniProt O75469); assay: Human pregnane X receptor (PXR) small molecule agonists, qHTS assay (AID 1346982); also: nearly all actives have a fitted effect of over 35% in size; also: potency is read from the fitted curve at half-maximal effect
Outline: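 Agonist mode qHTS: PXR-Luc HepG2 cells plated 5 hr before DMSO-dissolved compounds were pinned in, cultured 24 hr at 37 C, 5% CO2; ONE-Glo luminescence readout.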

[12] = qHTS assay to identify small molecule antagonists of the peroxisome proliferator-activated receptor gamma (PPARg) signaling pathway - cell viability counter screen (AID 743194); conditions: PPARg-bla HEK293H viability, CellTiter-Glo luminescence, 17 h; Potency: co-treated with 50 nM rosiglitazone unless noted; activity change, negative = cytotoxicity: at 62.6 µM (top of the series), co-treated with 50 nM rosiglitazone unless noted; also: potency is read from the fitted curve at half-maximal effect; nearly all actives have a fitted effect of over 55% in size
Outline: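 Viability was measured as CellTiter-Glo luminescence in GeneBLAzer PPARg UAS-bla HEK293H cells. These cells had been exposed 17 h at 37 C to compounds together with rosiglitazone at 50 nM final, with the beta-lactamase readout taken in the same wells.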

[13] = target: Peroxisome proliferator-activated receptor delta (Homo sapiens) (UniProt Q03181); assay: qHTS assay to identify small molecule antagonists of the peroxisome proliferator-activated receptor delta (PPARd) signaling pathway (AID 743215; active = well fitted inhibition curve with a large enough effect in the signal ratio in the repeat runs, not every such curve was filed as active; inconclusive = weak or mixed curves, or effect the other way; inactive = no such curve, though single readings can be large or run the other way; the % refers to the signal ratio;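 also: cells stimulated with agonist L165041 at 300 nM final during compound exposure; % is scaled to controls: 0 for no effect and ±100 for the full control effect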); conditions: HEK293H PPARd-UAS-bla, beta-lactamase FRET ratio, antagonist, 17 h; ratio activity, negative = inhibition: at 62 µM (top of the series) unless noted
Outline: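 Inhibition of L165041-driven (300 nM final) PPARd signaling is scored in HEK293H UAS-bla cells. Exposure lasts 17 h at 37 C; beta-lactamase activity is then read by FRET substrate fluorescence after 2 h at room temperature.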

[14] = qHTS assay to identify small molecule antagonists of the vitamin D receptor (VDR) signaling pathway - cell viability counter screen (AID 743225); conditions: VDR-bla HEK293T viability, CellTiter-Glo luminescence, 16 h; viability change, negative = cytotoxic: at 61 µM (top of the series) unless noted; also: nearly all actives have a fitted effect of over 50% in size; also: potency is read from the fitted curve at half-maximal effect
Outline: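 Read-out: CellTiter-Glo luminescence measured 30 min after reagent addition at room temperature. Cells were VDR-bla HEK 293T exposed 16 h at 37C, 5% CO2, to compound with 3 nM final calcitriol agonist.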

[15] = qHTS assay to identify small molecule agonists of H2AX (AID 1224845; active = well fitted activation curve with a large enough effect in the signal ratio in the repeat runs, not every such curve was filed as active; inconclusive = weak or mixed curves; the % refers to the signal ratio; also: % is scaled to controls: 0 for no effect and ±100 for the full control effect); conditions: CHO-K1 phospho-H2AX Ser139 HTRF, 3 h; activation (H2AX phosphorylation): at 154 µM (top of the series) unless noted
Outline: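 Phospho-H2AX Ser139 measured by HTRF (ex 320 nm; em 665 and 620 nm) after 24 hr antibody incubation. Compounds, 15 concentrations, 0.76% DMSO, were applied to CHO-K1 cells for 3hr at 37C before lysis.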
Tags tell the direction and shape of the fitted curve.

Chain of UniProt P16473 (P16473 whole entry, looked up): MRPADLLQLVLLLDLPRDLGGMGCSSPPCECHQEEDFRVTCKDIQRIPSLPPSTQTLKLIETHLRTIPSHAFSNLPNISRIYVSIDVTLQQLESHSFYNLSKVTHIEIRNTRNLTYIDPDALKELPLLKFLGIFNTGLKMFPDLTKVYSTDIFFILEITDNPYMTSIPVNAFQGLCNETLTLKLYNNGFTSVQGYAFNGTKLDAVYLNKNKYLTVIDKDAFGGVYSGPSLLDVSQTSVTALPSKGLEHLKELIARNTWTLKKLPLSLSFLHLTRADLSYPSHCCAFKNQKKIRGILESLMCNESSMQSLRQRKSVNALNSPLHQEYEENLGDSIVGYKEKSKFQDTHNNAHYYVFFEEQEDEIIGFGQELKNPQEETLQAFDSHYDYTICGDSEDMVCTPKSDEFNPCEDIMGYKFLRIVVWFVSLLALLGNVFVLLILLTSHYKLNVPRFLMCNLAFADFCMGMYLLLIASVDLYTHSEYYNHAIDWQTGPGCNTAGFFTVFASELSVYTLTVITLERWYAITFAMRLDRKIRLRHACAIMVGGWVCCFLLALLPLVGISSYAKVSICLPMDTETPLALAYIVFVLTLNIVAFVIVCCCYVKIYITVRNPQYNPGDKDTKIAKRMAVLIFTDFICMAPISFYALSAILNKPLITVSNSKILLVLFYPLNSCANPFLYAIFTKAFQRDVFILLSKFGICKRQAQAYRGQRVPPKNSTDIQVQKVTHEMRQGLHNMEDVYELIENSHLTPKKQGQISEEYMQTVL
Chain of UniProt Q03181 (Q03181 whole entry, looked up): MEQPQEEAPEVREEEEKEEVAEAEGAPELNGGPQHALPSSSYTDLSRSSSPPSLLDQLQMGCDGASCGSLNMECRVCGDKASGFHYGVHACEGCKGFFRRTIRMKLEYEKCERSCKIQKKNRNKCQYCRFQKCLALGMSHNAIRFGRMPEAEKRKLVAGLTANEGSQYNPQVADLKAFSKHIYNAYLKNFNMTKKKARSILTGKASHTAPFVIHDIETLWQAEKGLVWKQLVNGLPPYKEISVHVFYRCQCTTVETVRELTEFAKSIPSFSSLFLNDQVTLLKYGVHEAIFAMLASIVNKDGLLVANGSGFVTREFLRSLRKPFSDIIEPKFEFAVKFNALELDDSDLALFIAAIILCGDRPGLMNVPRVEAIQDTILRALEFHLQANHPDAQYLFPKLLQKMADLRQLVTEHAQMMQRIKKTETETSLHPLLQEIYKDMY
Chain of UniProt O75469 (O75469 whole entry, looked up): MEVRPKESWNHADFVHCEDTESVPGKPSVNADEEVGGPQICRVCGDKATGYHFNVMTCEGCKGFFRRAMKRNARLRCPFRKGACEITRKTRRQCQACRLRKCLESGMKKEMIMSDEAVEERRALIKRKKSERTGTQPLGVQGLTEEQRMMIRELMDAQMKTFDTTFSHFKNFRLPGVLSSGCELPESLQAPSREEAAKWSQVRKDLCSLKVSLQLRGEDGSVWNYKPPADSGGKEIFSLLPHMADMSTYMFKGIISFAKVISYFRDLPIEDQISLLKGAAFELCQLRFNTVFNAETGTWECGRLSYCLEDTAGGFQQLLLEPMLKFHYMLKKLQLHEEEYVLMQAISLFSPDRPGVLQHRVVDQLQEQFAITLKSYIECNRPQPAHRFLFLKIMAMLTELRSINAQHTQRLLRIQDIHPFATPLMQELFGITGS
Chain of UniProt P03372 (P03372 whole entry, looked up): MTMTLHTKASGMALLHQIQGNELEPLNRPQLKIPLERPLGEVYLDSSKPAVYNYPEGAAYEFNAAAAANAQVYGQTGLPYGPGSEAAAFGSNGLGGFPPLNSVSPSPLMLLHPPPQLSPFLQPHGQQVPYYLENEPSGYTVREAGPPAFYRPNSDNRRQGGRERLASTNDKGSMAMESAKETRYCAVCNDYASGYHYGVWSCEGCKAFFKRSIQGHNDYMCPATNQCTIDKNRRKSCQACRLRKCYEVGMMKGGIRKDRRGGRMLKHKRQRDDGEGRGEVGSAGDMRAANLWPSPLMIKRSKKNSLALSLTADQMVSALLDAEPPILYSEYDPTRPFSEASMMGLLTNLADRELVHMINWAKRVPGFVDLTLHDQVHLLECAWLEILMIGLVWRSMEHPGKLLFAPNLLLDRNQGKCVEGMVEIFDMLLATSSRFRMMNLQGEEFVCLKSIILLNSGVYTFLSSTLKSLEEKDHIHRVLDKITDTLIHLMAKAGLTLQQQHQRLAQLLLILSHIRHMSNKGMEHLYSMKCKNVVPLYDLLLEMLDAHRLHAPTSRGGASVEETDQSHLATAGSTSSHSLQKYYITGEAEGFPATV

In the case of `Nc1c(Br)cc(Br)c2c1C(=O)c1ccccc1C2=O`, the Potency [1] was inconclusive: 7.32 µM [rising, single point], the Potency [2] was inconclusive: 8.21 µM [cytotoxic, partial curve] and the Potency [3] was inconclusive: 5.18 µM [cytotoxic, full curve]. For the same molecule, the Potency [4] was inconclusive: 5.81 µM [cytotoxic, partial curve], the Potency [5] was inconclusive: 4.62 µM [cytotoxic, full curve] and the Potency [6] was inconclusive: 16.2 µM [rising, single point].

With `CS(=O)(=O)c1ccc(C(=O)C2C(=O)CCCC2=O)c(Cl)c1COCC(F)(F)F` the Potency [7] was “inactive”, the Potency [5] was “inactive” and the Potency [8] was “inactive”.

With `COc1cc(C[C@@H](C)N)c(OC)cc1Br` the Potency [9] was “inactive”, the Potency [10] was inconclusive: 2.23 µM [cytotoxic, full curve, poor fit] and the Potency [1] was active: 31.5 µM. The activation [7] was inconclusive: 27%, the Potency [6] was inconclusive: 56 µM [cytotoxic, partial curve] and the Potency [8] was inconclusive: 28 µM [cytotoxic, partial curve].

With `N#CC1(N=NC2(C#N)CCCCC2)CCCCC1` the activation [7] was inconclusive: -27%, the Potency [3] was “inactive” and the Potency [11] was inconclusive: 30.6 µM [activator, partial curve].

With `CCN[C@@H](C)Cc1ccccc1` the Potency [12] was inconclusive: 8.56 µM [cytotoxic, single point] [setting not given], the ratio activity, negative = inhibition [13] was inconclusive: 1.18% [at 80.4 µM] and the Potency [14] was “inactive”. For the same molecule, the Potency [8] was inconclusive: 38.3 µM [cytotoxic, partial curve] and the Potency [11] was “inactive”.

For `CCC1(c2ccccc2)C(=O)N(COC)C(=O)N(COC)C1=O`, the Potency [2] was “inactive” and the Potency [8] was “inactive”.

In the case of `NCC1(CC(=O)O)CCCCC1`, the ratio activity, negative = inhibition [13] was inconclusive: -2.73%, the Potency [1] was “inactive” and the Potency [14] was inconclusive: 0.0952 µM [cytotoxic, single point]. For the same molecule, the Potency [15] was “inactive”.

For `CCC(C)n1c(=O)[nH]c(C)c(Br)c1=O` (stereo not given), the Potency [6] was “inactive”.
